For 3 substances, binding results are on record in paper PMC10987609.

Chains of the proteins cited; added tags and fusions are not shown. Lines headed by an entry give the natural chain unless they say otherwise; changes in a name come on top.
UniProt Q9NS91: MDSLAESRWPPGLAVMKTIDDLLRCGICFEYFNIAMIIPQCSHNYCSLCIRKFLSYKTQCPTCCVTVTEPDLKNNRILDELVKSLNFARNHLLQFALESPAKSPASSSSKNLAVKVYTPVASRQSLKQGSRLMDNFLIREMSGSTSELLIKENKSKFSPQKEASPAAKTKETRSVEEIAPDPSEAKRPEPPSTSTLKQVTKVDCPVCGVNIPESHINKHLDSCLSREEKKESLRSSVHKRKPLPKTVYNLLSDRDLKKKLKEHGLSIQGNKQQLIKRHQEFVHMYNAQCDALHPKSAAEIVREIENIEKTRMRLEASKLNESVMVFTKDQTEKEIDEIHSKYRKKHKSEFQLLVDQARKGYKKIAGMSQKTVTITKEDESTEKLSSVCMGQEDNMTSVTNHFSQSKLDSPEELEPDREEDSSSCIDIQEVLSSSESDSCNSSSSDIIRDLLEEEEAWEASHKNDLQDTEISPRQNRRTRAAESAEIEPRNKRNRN
UniProt P12004: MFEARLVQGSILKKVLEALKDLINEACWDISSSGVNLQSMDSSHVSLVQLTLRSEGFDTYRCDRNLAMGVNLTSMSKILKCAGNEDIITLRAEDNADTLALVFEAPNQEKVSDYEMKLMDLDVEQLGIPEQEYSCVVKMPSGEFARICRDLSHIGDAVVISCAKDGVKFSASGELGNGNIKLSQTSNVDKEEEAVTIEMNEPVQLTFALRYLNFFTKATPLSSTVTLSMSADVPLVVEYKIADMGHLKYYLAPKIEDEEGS
UniProt P27694: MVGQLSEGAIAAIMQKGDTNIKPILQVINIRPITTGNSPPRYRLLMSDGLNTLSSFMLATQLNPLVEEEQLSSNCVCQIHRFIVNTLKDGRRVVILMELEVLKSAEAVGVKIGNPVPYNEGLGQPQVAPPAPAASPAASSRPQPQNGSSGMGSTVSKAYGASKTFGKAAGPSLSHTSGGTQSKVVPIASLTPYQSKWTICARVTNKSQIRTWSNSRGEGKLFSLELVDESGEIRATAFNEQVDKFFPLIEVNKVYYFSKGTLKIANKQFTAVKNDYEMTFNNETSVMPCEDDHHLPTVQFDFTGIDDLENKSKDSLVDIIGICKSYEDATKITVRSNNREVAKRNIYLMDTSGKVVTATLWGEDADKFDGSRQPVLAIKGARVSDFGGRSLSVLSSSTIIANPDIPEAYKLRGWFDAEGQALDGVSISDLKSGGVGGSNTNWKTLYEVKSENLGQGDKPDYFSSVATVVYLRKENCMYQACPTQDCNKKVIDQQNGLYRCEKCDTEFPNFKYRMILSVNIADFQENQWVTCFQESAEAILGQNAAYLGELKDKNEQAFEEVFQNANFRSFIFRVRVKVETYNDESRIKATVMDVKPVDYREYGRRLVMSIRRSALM

These are yes or no findings as the source states them, for the method shown. For some assays here: In cells and extracts the contact can be indirect. Some entries that bind do so weakly or less than the wild type.

Assay [1] deals with His-sumo-tagged human Rad18 S403E (human) (UniProt Q9NS91). As to the kind of experiment: pull-down; His-sumo-tagged Rad18 bound to cobalt agarose, incubated with HEK293T cell lysate; NETN buffer without EDTA, 5 mM imidazole, 300 mM NaCl, 4 °C, 45 min; immunoblot; only the target purified. In general terms: Immunoblotting shows a protein as a band on a membrane.
Assay [2] addresses His-sumo-tagged wild-type human Rad18 (human) (UniProt Q9NS91). Described as above.
The target of assay [3] is SFB-tagged Rad18 S403E (human) (UniProt Q9NS91). The assay is described as follows: co-IP; HEK293T cells transfected with SFB-tagged Rad18 or SLX4 (wild type or mutants), lysed 24 h later in NETN buffer, precipitated with S beads; western blot (Fig. 3F, Fig. 5C).
Assay [4] deals with SFB-tagged wild-type Rad18 (human) (UniProt Q9NS91). The assay is described as above.
Assay [5] deals with His-sumo-tagged human Rad18 S403A (human) (UniProt Q9NS91). The assay is described as follows: pull-down; His-sumo-tagged Rad18 bound to cobalt agarose, incubated with HEK293T cell lysate; NETN buffer without EDTA, 5 mM imidazole, 300 mM NaCl, 4 °C, 45 min; immunoblot; only the target purified.
Assay [6] has as its target His-sumo-tagged human Rad18 S403E (human) (UniProt Q9NS91). As to the kind of experiment: pull-down; His-sumo-tagged Rad18 bound to cobalt agarose, incubated with recombinant GST-PCNA purified from E. coli; NETN buffer without EDTA, 5 mM imidazole, 300 mM NaCl, 4 °C, 45 min; both purified.

For “endogenous PCNA (non-ubiquitinated) (from UniProt P12004 1-261)”, the binding result in assay [1] was “no binding”; in assay [2] it was “binds”; in assay [3] it was “no binding”; in assay [4] it was “binds”.
In the case of “endogenous RPA1 (from UniProt P27694 1-616)”, the binding result in assay [1], in assay [5] and in assay [2] was “binds” in each case.
As to “recombinant GST-PCNA (from UniProt P12004 1-261)”, in assay [6], the binding entry is “no binding”.
